# Results: the supplement of paper PMC4166925
# ± gives the standard deviation of the averaged measurements. The full ranking holds about 33,000 sequences; the median of “E-score (dimensionless, -0.5 to 0.5)” is about -0.049, and the highest 2% start at about 0.37. The list shows a part of the results.
# System: T1, PmTbr T-box DNA-binding domain (GST fusion)
# T1 sequence: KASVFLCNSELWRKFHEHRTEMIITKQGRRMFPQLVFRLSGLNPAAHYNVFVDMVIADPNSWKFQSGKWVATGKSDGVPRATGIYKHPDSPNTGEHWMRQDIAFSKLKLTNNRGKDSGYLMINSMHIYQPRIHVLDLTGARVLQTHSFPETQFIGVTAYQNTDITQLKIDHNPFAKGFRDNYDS
# Test: PBM E-score of 8-mer (E-score (dimensionless, -0.5 to 0.5)); Tbr is Tbrain of the sea star Patiria miniata (Pm) or the sea urchin Strongylocentrotus purpuratus (Sp); higher = stronger binding preference; most listed sequences are background and not binding sites
# Conditions: the construct has about 5 more residues each side
# Experimental: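 Universal protein-binding microarray (Agilent AMADID 016060, 60-bp probes with a 35-bp variable region) incubated with 200 nM GST-fused Patiria miniata Tbr T-box DNA-binding domain (residues 272-466) in PBS pH 7.5. Scored for every ungapped 8-mer (given with its reverse complement) by the Universal PBM Analysis Suite as E-score (modified Wilcoxon-Mann-Whitney enrichment, range -0.5 to 0.5; >0.45 counts as bound) and Z-score of median probe intensity. Two replicate arrays (datasets 1 and 2).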
# 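Further: 200 nM protein in PBS on universal arrays averaged over duplicate arrays.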
row,Sequence,PBM E-score of 8-mer
1,AGGCCCGG,-0.264 ± 0.041
2,GGTAAGAC,-0.236 ± 0.028
3,CTCAAATA,-0.321 ± 0.072
4,ACAAGGCC,-0.0113 ± 0.076
5,AGCTGGAT,-0.000465 ± 0.0011
6,CTTATACA,0.022 ± 0.13
7,CTGATTTA,-0.123 ± 0.0066
8,AAACTGGT,-0.0358 ± 0.013
9,CCTTGAAC,-0.129 ± 0.072
10,GACACTGA,0.157 ± 0.016
11,ACCAATCC,0.0411 ± 0.059
12,GAGTGTAC,-0.079 ± 0.061
13,GTAGCACA,0.227 ± 0.0045
14,CACGTCCG,0.26 ± 0.0099
15,AGAGTTTA,-0.0178 ± 0.0059
16,AGAGACAT,-0.101 ± 0.019
17,AGTGACGA,0.358 ± 0.016
18,CGGACGGA,-0.135 ± 0.016
19,GGGGTTAA,-0.255 ± 0.032
20,ATGTTCCG,-0.156 ± 0.036
21,AACCGGAT,-0.219 ± 0.071
22,ACAATTAG,0.162 ± 0.018
23,CCCGCACC,0.3 ± 0.031
24,GATCATCC,-0.114 ± 0.025
25,CTCGCGCC,0.401 ± 0.013

row,Sequence,PBM E-score of 8-mer
1,AGCGACTA,0.0742 ± 0.067
2,ACATCCTA,-0.147 ± 0.0064
3,CAAGGCTA,-0.0345 ± 0.043
4,ACTCTTTA,0.0498 ± 0.13
5,GTGCGTGA,0.311 ± 0.013
6,AATGCGTA,-0.0844 ± 0.072
7,CATGCAAC,0.199 ± 0.021
8,AAAAGACC,-0.181 ± 0.096
9,CCAGCGAC,-0.0756 ± 0.1
10,CTAATAAC,0.00645 ± 0.027
11,AGTATAGG,-0.228 ± 0.027
12,ATGCCGCC,-0.211 ± 0.18
13,CTTGCATC,-0.122 ± 0.011
14,CTTGCGAA,0.328 ± 0.029
15,ATCGTCGG,-0.0578 ± 0.11
16,ACTCGTTC,-0.161 ± 0.039
17,ACTGCGTC,-0.157 ± 0.043
18,ACGGAAAT,-0.189 ± 0.071
19,GAACGCAA,-0.0799 ± 0.066
20,AACAAAAA,0.00012 ± 0.15
21,AGGTTAGG,-0.0806 ± 0.06
22,ACCCAGGT,0.18 ± 0.0094
23,GCGAGTCA,0.146 ± 0.027
24,CGCAACTC,0.199 ± 0.045
25,TAGCACCA,0.403 ± 0.015

row,Sequence,PBM E-score of 8-mer
1,CCAACCGG,-0.0451 ± 0.026
2,AGTTCCTC,-0.131 ± 0.0053
3,TGGACCAA,-0.237 ± 0.0078
4,ATAGACAC,0.149 ± 0.0088
5,GCCGATCA,0.0187 ± 0.044
6,GATTCGAA,0.147 ± 0.023
7,ACTAATTA,-0.143 ± 0.022
8,AGATACAC,0.126 ± 0.0017
9,ACCGGGCT,-0.218 ± 0.006
10,CATCACAC,0.4576 ± 0.0032
11,AGATTGCT,-0.171 ± 0.023
12,CACCATCC,0.148 ± 0.025
13,GAACAATC,-0.017 ± 0.0059
14,AAATCAGC,0.0647 ± 0.069
15,AGTGATGC,0.0431 ± 0.022
16,GTTGAATA,-0.108 ± 0.0019
17,CATGCAGG,-0.125 ± 0.12
18,CTTCGCCC,-0.0791 ± 0.096
19,ATATCCAC,-0.00342 ± 0.0057
20,AAATGAGC,-0.15 ± 0.021
21,ATTCGGCG,0.101 ± 0.024
22,AGGCGTAT,-0.0891 ± 0.033
23,CGTACCTC,-0.0246 ± 0.026
24,GGCGAACA,0.0467 ± 0.018
25,CAACGCAA,0.0764 ± 0.049

row,Sequence,PBM E-score of 8-mer
1,CCCGGCGG,-0.0651 ± 0.034
2,CGTCGTCC,-0.136 ± 0.019
3,GCTAACAC,0.43 ± 0.0048
4,ACATGGGG,0.0236 ± 0.092
5,CCCATAAG,0.00496 ± 0.008
6,AATGGCTA,-0.13 ± 0.025
7,ACCCTAGG,0.203 ± 0.0028
8,AGCCTCCT,-0.194 ± 0.057
9,GGGTATGA,-0.0607 ± 0.05
10,CCAAAAGA,-0.0901 ± 0.029
11,CACCGACG,0.193 ± 0.03
12,GTTAGCAA,0.33 ± 0.034
13,AGGCGAGC,-0.25 ± 0.068
14,TCGTGAGA,0.232 ± 0.03
15,AACCAGGC,-0.0364 ± 0.0037
16,CTCGCACC,0.4721 ± 0.0042
17,AAAGGCGC,0.206 ± 0.035
18,TCAAGTCA,0.0315 ± 0.049
19,GTCCGGCA,-0.285 ± 0.11
20,ACGTTTTC,0.0911 ± 0.12
21,AAGAATTC,-0.185 ± 0.055
22,GTCTGAAC,-0.1603 ± 0.0013
23,AAGGCGAA,-0.0352 ± 0.16
24,ATTAAAAA,-0.208 ± 0.052
25,AGGCAACC,-0.109 ± 0.022

row,Sequence,PBM E-score of 8-mer
1,CCAGTGAC,0.177 ± 0.027
2,ACCGGCAT,-0.05 ± 0.063
3,ATATGAAC,-0.232 ± 0.069
4,GTCACGGA,0.051 ± 0.034
5,CAGATTGG,-0.135 ± 0.071
6,ATATGGGG,0.0105 ± 0.029
7,AAGAAGTA,-0.131 ± 0.0061
8,AAGATACA,-0.167 ± 0.029
9,ATGGGGGC,-0.341 ± 0.065
10,CAGTCCCC,0.116 ± 0.027
11,GGTCTGTA,-0.0886 ± 0.0071
12,AGAGAGCG,-0.179 ± 0.017
13,CACCAAGC,0.145 ± 0.055
14,CACAAATG,0.0269 ± 0.041
15,ACTAGACG,-0.00246 ± 0.011
16,CAACGGAA,-0.0758 ± 0.022
17,GCGGACCC,-0.119 ± 0.044
18,GTACGGCA,-0.122 ± 0.0074
19,GCTAGTGA,0.122 ± 0.015
20,CGGCGCAG,-0.176 ± 0.069
21,ACCCTCAT,-0.0646 ± 0.038
22,AGTACCAC,0.111 ± 0.0066
23,CCGGTTAG,-0.117 ± 0.062
24,ATACTCCG,-0.00617 ± 0.029
25,AACGAGTG,0.233 ± 0.052

row,Sequence,PBM E-score of 8-mer
1,TAACAGGA,0.0692 ± 0.067
2,GCCGATAC,-0.132 ± 0.033
3,CGAAATGC,-0.0228 ± 0.008
4,CACGCATC,0.231 ± 0.013
5,CAACAATA,0.06 ± 0.0016
6,ACCCCCCT,-0.152 ± 0.11
7,TACTGTCA,0.222 ± 0.022
8,AGGATTCA,-0.0165 ± 0.1
9,CTACCGAA,-0.107 ± 0.043
10,CTGGAGTC,-0.396 ± 0.072
11,CTCCAAGA,0.00553 ± 0.041
12,CGCCTAAC,0.095 ± 0.0026
13,ACTTCCCG,0.182 ± 0.038
14,GGCTAGTA,-0.14 ± 0.051
15,AGTTAGGA,-0.171 ± 0.054
16,ACCCTCGT,0.064 ± 0.033
17,AATTGCGC,0.0091 ± 0.0091
18,CATGGTAA,-0.0548 ± 0.069
19,CTTTCCAC,0.173 ± 0.0037
20,ACGTATAC,0.0634 ± 0.028
21,GTGCGACA,0.412 ± 0.021
22,AGGAATGA,-0.146 ± 0.03
23,ACGCAAGT,0.0866 ± 0.014
24,AGTTAGTC,0.0468 ± 0.002
25,CGCGGGAC,-0.0551 ± 0.027

row,Sequence,PBM E-score of 8-mer
1,CATGGCAC,0.217 ± 0.044
2,CGTGGGCA,-0.0846 ± 0.031
3,CGTATCGA,0.0436 ± 0.059
4,CCACTCGA,0.0299 ± 0.037
5,AACATTGA,-0.0887 ± 0.0012
6,CGTGAGAA,0.349 ± 0.039
7,CACTTCCG,0.37 ± 0.013
8,CTGCCGCC,0.0885 ± 0.073
9,GTTGCCTA,-0.123 ± 0.054
10,CAAGTTGA,0.116 ± 0.0034
11,GACCATCA,-0.233 ± 0.053
12,AAAGTTAA,-0.156 ± 0.049
13,ACTTATAC,0.0734 ± 0.081
14,AAGTAAGT,-0.0499 ± 0.021
15,AACGGCAG,-0.0199 ± 0.076
16,CAATTCTC,-0.00722 ± 0.0093
17,GATCTCGC,0.287 ± 0.058
18,ATTGTGTC,0.225 ± 0.0046
19,ATAGAAAG,-0.0905 ± 0.11
20,GTTGGACA,0.118 ± 0.033
21,ATACCGCG,-0.0911 ± 0.038
22,ATTTATTG,-0.2667 ± 0.00054
